# Literature values as cited in patent US20150086650A1 (priority 2012, published 2015).
smiles,measurement,value
CO/C=C(/C(=O)OC)c1ccccc1Oc1cc(Oc2ccccc2C#N)ncn1 [Azoxystrobin],skin irritation / sensitization,irritant to skin and may cause sensitization
